# Assay results: PubChem BioAssay AID1745853 (National Center for Advancing Translational Sciences (NCATS), 2022)
# “And” between values parts separate entries of the source, which are not always exact repeats. Identical values can stand only once. The list shows a part of the results. Shown are side measurements of this screen, not its main read-out; they come without a call.
# Columns and labels:
# Assay in all cases: Primary Screen for Target Class Profiling of Small Molecule Inhibitors of Methyltransferases
# [1] = target: Glycine N-methyltransferase (Homo sapiens) (UniProt Q14749); conditions: purified enzyme, MTase-Glo SAH luminescence; measured here: GNMT inhibition; at 40 µM; stronger effect = lower value
# Method in brief: (§1)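 Each enzyme was assayed with SAM and its substrate. SAH formation detected by MTase-Glo luminescence; single-point 40 uM screen[…].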
# [2] = target: Guanidinoacetate N-methyltransferase (Homo sapiens) (UniProt Q14353); conditions: purified enzyme, MTase-Glo SAH luminescence; measured here: GAMT inhibition; at 40 µM; stronger effect = lower value
# Method in brief: as §1
# [3] = target: Histamine N-methyltransferase (Homo sapiens) (UniProt P50135); conditions: purified enzyme, MTase-Glo SAH luminescence; measured here: HNMT inhibition; at 40 µM; stronger effect = lower value
# Method in brief: as §1
# [4] = target: Nicotinamide N-methyltransferase (Homo sapiens) (UniProt P40261); conditions: purified enzyme, MTase-Glo SAH luminescence; measured here: NNMT inhibition; at 40 µM; stronger effect = lower value
# Method in brief: as §1
# [5] = target: Phenylethanolamine N-methyltransferase (Homo sapiens) (UniProt P11086); conditions: purified enzyme, MTase-Glo SAH luminescence; measured here: PNMT inhibition; at 40 µM; stronger effect = lower value
# Method in brief: as §1
# On the % scale 0 is the no-effect control and ±100 the full control effect.
SMILES,"activity change, negative = inhibition [1]","activity change, negative = inhibition [2] [%]","activity change, negative = inhibition [3] [%]","activity change, negative = inhibition [4]","activity change, negative = inhibition [5] [%]"
O=C(c1ccc2c(c1)OCCO2)N1CCCCC1,-9.36%,1.39,-2.48,-13%,0.185
COc1ccccc1CNC(=O)C1(C)Cn2nc(-c3ccccc3)cc2C(=O)N1c1ccc(C)cc1Cl (configuration not stated),3.37%,3.5,9.34,1.07%,-0.052
CN1C(=O)c2cc(C(=O)N3CCOCC3)nn2CC1(C)C(=O)NCc1ccccc1 (configuration not stated),4.09%,0,2.89,9.44%,5.22
Cn1nc(C2CC2)cc1NC(=O)C1CCCC1,-0.061%,0.807,0.412,-2.03%,-4.17
O=C1NC2(CCN([S+](=O)([O-])c3ccccc3)C2)Oc2ccccc21 (configuration not stated),-23.6%,-5.5,-3.98,-12.2%,-18.8
CC(CCc1ccccc1)N1C(=O)c2ccccc2CC1(C)C(=O)NC1CCCCCCC1 (configuration not stated),-1.77%,4.27,2.11,2.79%,-2.56
CCn1c(C2CCCNC2)nn(Cc2csc(-c3ccccc3)n2)c1=O (configuration not stated),-3.28%,-8.51,-5.69,-12.1%,-8.4
COCCCNc1nc2c(S(=O)(=O)c3ccc(C)c(C)c3)nnn2c2ccccc12,-12.7%,4.5,1.3,1.89%,-4.97
CCCCNc1nc2c(-c3ccc(F)cc3)nnn2c2ccccc12,2.58%,0.305,7.78,12.6%,2.74
Cn1c(=O)n(C)c2cc(S(=O)(=O)N(Cc3ccco3)C(=O)c3ccncc3)ccc21,3.73%,0.031,7.55,8.44%,3.06
COC(=O)c1ncn2c1C(=O)N(CCCc1ccccc1)C(C)(C(=O)NC1CCCCC1)C2 (configuration not stated),1.02%,7.92,-1.61,3.97%,2.38
CC(C)CCNC(=O)C1c2c(n(C)c3ccccc23)SCC(=O)N1Cc1ccccc1Cl (configuration not stated),4%,-2.36,0.61,-10.8%,-2.04
COc1ccc(N2C(=O)c3cc(C(C)(C)C)nn3CC2(C)C(=O)NCc2ccccc2)cc1 (configuration not stated),5.09%,0.471,5.77,1.32%,1.46
CCCn1c(=O)c2ccc(C(=O)NC3CCCCC3)cc2n2c(=O)n(Cc3cccc(F)c3)nc12,5.34%,0,10.3,7.87%,7.13
Cc1c(Cl)cccc1N1C(=O)c2cc(C(C)(C)C)nn2CC1(C)C(=O)NC1CCCCC1 (configuration not stated),-10.2%,-0.516,-8.33,-3.85%,-5.04
CCOCCCNC(=O)C1c2c(n(C)c3ccccc23)SCC(=O)N1Cc1ccc(C)cc1 (configuration not stated),10%,1.39,7.67,1.91%,9.35
O=C1CCC(=O)N(O)CCCCCNC(=O)CCC(=O)N(O)CCOCCNC(=O)CCC(=O)N(O)CCCCCN1,8.03%,4.39,-0.106,-7.38%,5.45
COC(=O)c1cc2n(n1)CC(C)(C(=O)NC1CCCCC1)N(c1cccc(F)c1)C2=O (configuration not stated),5.38%,0,9.54,6.46%,5.96
CCOc1ccccc1CN1C(=O)c2cc(-c3ccccc3)nn2CC1(C)C(=O)NCc1ccccc1 (configuration not stated),5.25%,0,1.16,1.29%,-2.31
C=C(C)n1c(=O)n(Cc2ccc(C)cc2)c2ccccc21,-0.159%,0.334,6.32,-8.49%,2.25

SMILES,"activity change, negative = inhibition [1]","activity change, negative = inhibition [2] [%]","activity change, negative = inhibition [3] [%]","activity change, negative = inhibition [4]","activity change, negative = inhibition [5] [%]"
COc1ccc(NC(=O)CSc2nnc3n(Cc4ccccc4)c(=O)c4ccccc4n23)cc1,-5.28%,1.69,4.24,-6.42%,-2.23
O=C(Cn1nc2n(CCc3ccccc3)c(=O)c3ccccc3n2c1=O)Nc1ccc(Cl)cc1,1.79%,0.105,3.13,3.55%,1.63
Cc1noc(C)c1CCNC(=O)c1ncn2c1C(=O)N(C1CC1)C(C)(C(=O)NCc1ccccc1Cl)C2 (configuration not stated),1.28%,2.5,14.7,2.68%,10.5
COCC(=O)N[C@H]1C[C@@H](CO)N(Cc2sccc2C)C1,-2.72%,-0.017,0.812,0.292%,-20.6
Cc1cccc(NC(=O)Cn2c(=O)oc3cc(S(=O)(=O)N4CC(C)CC(C)C4)ccc32)c1C (configuration not stated),-7.92%,2,-3,-0.681%,-6.78
CC(C)n1c(=O)c2ccc(C(=O)NC3CCCCC3)cc2n2c(=O)n(CC(=O)NC3CCCC3)nc12,6.01%,0,9.35,6.82%,6.7
C=C1CC[C@@H]2[C@](C)(CO[C@@H]3O[C@H](CO)[C@@H](O)[C@H](O)[C@H]3O)CCC[C@@]2(C)[C@@H]1CCC1=CCOC1=O,0%,2.35,6.73,-12%,3.88
COC(=O)C1=C2Nc3ccccc3C23CCN2CCCC(C(C)O)(C1)C23 (configuration not stated),-2.79%,-1.68,-63.3,-12.2%,-11.1
COc1ccc(-c2nnc3n(CCc4ccccc4)c(=O)c4ccccc4n23)cc1,-6%,0,-0.031,-3.36%,-7.23
COc1c/c(=C2\C=c3ccccc3=N2)[nH]/c1=C\c1[nH]c(C)cc1C,-31.8%,,-30,,
CCc1cc2c(cc3n2CC(C)(C(=O)NC2CCC(C)CC2)N(c2cccc(C)c2C)C3=O)s1 (configuration not stated),5.53%,1.16,6.37,13.7%,4.79
CCOC(=O)c1cc2n(n1)CC(C)(C(=O)NC1CCCCC1)N(Cc1ccccc1F)C2=O (configuration not stated),4.57%,4.48,-1.95,2.21%,3.89
O=C(CCn1ccc2cc(S(=O)(=O)N3CCCCC3)ccc21)NCCC1=CCCCC1,0.201%,2.56,0.404,-8.66%,-2.27
CC(C)NC(=O)c1cc2n(n1)CC(C)(C(=O)NC1CCCCCC1)N(C)C2=O (configuration not stated),7.14%,3.86,11.3,15%,4.54
CN1C(=O)c2cc(C(=O)NCc3cccc(Br)c3)nn2CC1(C)C(=O)NCc1ccc(F)cc1 (configuration not stated),-3.82%,0.042,-7.26,-3.75%,-5.26
COc1cccc(Cn2nc3n(C)c(=O)c4ccc(C(=O)NCC(C)C)cc4n3c2=O)c1,3.93%,0.607,11,-1.34%,4.9
O=S(=O)(c1ccccc1)N1CC(c2nc(Cc3cccnc3)no2)C1,-0.145%,-1.62,3.17,-2.99%,1.02
COC(=O)c1ncn2c1C(=O)N(c1cccc(C)c1C)C(C)(C(=O)NCc1ccccc1OC)C2 (configuration not stated),-1.86%,0,0.838,-0.172%,-2.28
Cc1cc(F)ccc1NC(=O)Cn1c(=O)oc2cc(S(=O)(=O)N3CCCC3)ccc21,7.16%,0,9.19,19.2%,4.98
O=C(CCc1nnn2c1CN(C(=O)COc1ccc(F)cc1)CC2)N1CCCC1,-2.25%,-0.432,-0.724,-2.07%,-4.63

SMILES,"activity change, negative = inhibition [1]","activity change, negative = inhibition [2] [%]","activity change, negative = inhibition [3] [%]","activity change, negative = inhibition [4]","activity change, negative = inhibition [5] [%]"
CCC(C)NC(=O)N1CCn2nnc(CCC(=O)N3CCOCC3)c2C1 (configuration not stated),-0.428%,1.1,1.93,-0.176%,0.569
CCN(CC)CC[C@H]1CN(C(=O)C2CC2)CC[C@H]1CC(=O)O,-0.76%,-0.813,2.02,-0.559%,0.416
CC(C)OCCCNc1nc2c(-c3ccc(Cl)cc3)nnn2c2ccccc12,2.5%,12.5,8.28,12.4%,2.81
NC(N)=NC(=O)c1nc(Cl)c(N2CCCCCC2)nc1N,-2.28%,7.98,-6.07,-9.89%,-1.56
CNC(=O)N1C[C@@H](CN(C)C)[C@H](NC(=O)c2ccsc2)C1,-4.58%,-1.83,1.71,-1.68%,0.353
CC(=O)O[C@H](C[C@@H](C)[C@H]1C(=O)[C@H](O)[C@@]2(C)[C@@H]3CCC4C(C)(C)[C@@H](O[C@@H]5OC[C@H](O)[C@H](O)[C@H]5O)CC[C@@]45C[C@@]35CC[C@]12C)[C@@H]1OC1(C)C (some centres not stated),-4.78%,-4.07,0.287,-22.5%,-3.13
Cc1cnc(C2CCC2)n1CCNC(=O)c1nccn1C,-5.45%,-7.74,-6.26,-14.9%,10.3
O=C(Cc1cccc(Cl)c1)NC1CCN(Cc2ccc(-c3ccsc3)cc2)C1 (configuration not stated),-11.6%,-9.86,-16,-25.1%,-28.4
CN(C)CC1(O)CCC2(CCN(C(=O)c3cccn3C)CC2)CC1,-80.5%,-5.92,-5.29,-7.03%,8.09
CC(C)(Cc1ccc(F)cc1)NC(=O)CC1C(=O)NCCN1Cc1ccoc1 (configuration not stated),-9.78%,-7.26,-1.28,-12.5%,-13.8
O=c1cc(-c2ccccc2)c2ccc(OCc3ccccc3)cc2o1,-1.83%,0,7.57,3.89%,-1.91
COc1cc(O)c2c(c1)C1(OC2=O)C(C)=CC(=O)C1O (configuration not stated),1.77%,7.07,9.81,-5.41%,4.04
CC1=C(CC(=O)O)c2cc(F)ccc2/C1=C\c1ccc(S(C)(=O)=O)cc1,-12.1%,2.1,-1.94,-9.56%,1.67
Cc1ccc(Cn2c(=O)c3ccccc3n3c(CCC(=O)N4CCN(c5ncccn5)CC4)nnc23)cc1,-8.47%,2.21,-1.6,-3.1%,-4.93
Cc1cccc(OCC(=O)N2CCC[C@H]2c2nc(-c3ccc(F)cc3)n[nH]2)c1,-4.17%,-3.59,-1.67,-8.44%,0.944
CC(C)N(CCCNC(=O)Nc1ccc(C(C)(C)C)cc1)C[C@H]1O[C@@H](n2cc(Br)c3c(N)ncnc32)[C@H](O)[C@@H]1O,-91% and -76.1%,-57.6,-83.3,-185% and -81.9%,-94.5
COc1ccc(-c2csc(NC(=O)[C@H]3CCCCN3S(=O)(=O)c3ccc(C)cc3)n2)cc1,5.19%,-20.7,3.42,-34.4%,-10.8
CN1C(=O)c2cc(C(=O)NC3CCCCCC3)nn2CC1(C)C(=O)NCc1ccc(F)cc1 (configuration not stated),6.33%,0,5.19,6.43%,1.97
COCC(=O)N[C@@H]1CN(Cc2cccn2C)C[C@H]1CO,-3.48%,-1.95,0.987,-0.135%,-4.64
CC1(C(=O)NC2CCCCC2)Cn2c(ccc2-c2ccco2)C(=O)N1Cc1ccc(Cl)cc1 (configuration not stated),-10.8%,-0.204,4.53,-11.8%,-5.29
